From PubChem BioAssay AID1030 (National Center for Advancing Translational Sciences (NCATS), 2008)
About 16,000 (7.3%) of roughly 220,000 compounds were called active. The inconclusive results got no clear call from the source; some entries with a clear call stand among them for comparison. Calls come from the whole dose curve; as a rule, active = well fitted inhibition curve with a large enough effect (not every such curve was filed as active); inconclusive = small, poorly fitted or top-dose-only effect, or another doubt; inactive = no such curve, though single readings can be large or run the other way. No potency is given beside an inconclusive call; the fits are too rough.

What follows are molecules tested against Aldehyde dehydrogenase 1A1 (Homo sapiens) (UniProt P00352) (assay: qHTS Assay for Inhibitors of Aldehyde Dehydrogenase 1 (ALDH1A1)). Conditions: Purified ALDH1A1, NADH fluorescence, propionaldehyde substrate; series mostly up to 75.3 µM; activity, negative = inhibition: at the top concentration.
Sequence of UniProt P00352 (P00352 whole entry, looked up): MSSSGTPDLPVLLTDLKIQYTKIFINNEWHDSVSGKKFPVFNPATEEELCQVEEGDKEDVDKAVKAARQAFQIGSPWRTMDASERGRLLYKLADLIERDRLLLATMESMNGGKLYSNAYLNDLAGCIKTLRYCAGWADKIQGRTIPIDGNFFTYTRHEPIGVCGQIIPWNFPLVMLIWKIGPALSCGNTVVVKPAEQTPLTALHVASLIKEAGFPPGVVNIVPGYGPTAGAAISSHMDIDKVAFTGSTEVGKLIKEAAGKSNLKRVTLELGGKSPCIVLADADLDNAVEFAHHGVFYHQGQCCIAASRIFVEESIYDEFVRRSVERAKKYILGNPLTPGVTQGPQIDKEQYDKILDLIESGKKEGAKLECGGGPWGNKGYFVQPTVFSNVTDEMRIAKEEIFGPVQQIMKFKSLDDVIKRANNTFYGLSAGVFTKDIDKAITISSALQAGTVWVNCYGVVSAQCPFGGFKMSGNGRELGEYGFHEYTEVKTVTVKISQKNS
Potency is the fitted concentration of half-maximal effect; tags give direction and shape of the fitted curve.
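Throughout, for activity, negative = inhibition: plate controls were no enzyme wells and a reference inhibitor.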

Row | SMILES | Potency | activity, negative = inhibition
1 | CCN(CC)S(=O)(=O)c1ccc(N2CCCC2)c(NC(=O)Cc2ccc(OC)cc2)c1 | active: 1.12 µM | 
2 | O=C(NC1CCCC1)c1nc2c(nnn2Cc2cccc(Cl)c2)c(=O)[nH]1 |  | inactive: -3.79%
3 | Cc1ccc(Cn2nnc3c(=O)[nH]c(C4CCN(C(=O)Cc5cccs5)CC4)nc32)cc1 |  | inactive: -4.33%
4 | Cc1ccc(CCNC(=O)C23CN(Cc4ccccc4)CC2C(c2ccc([N+](=O)[O-])cc2)=NO3)cc1 (centres undefined) | active: 14.1 µM | 
5 | CCN(CC)CCCNc1oc(-c2cccc(Cl)c2)nc1C#N | inconclusive [inhibitor, partial curve] | 
6 | CCCC(=O)c1ccc(N2CCN(C(=O)c3ccccc3)CC2)c(F)c1 | inconclusive [inhibitor, single point] | 
7 | O=C(OCCN1C(=O)c2cccc3c(N4CCOCC4)ccc(c23)C1=O)c1cccc(Cl)c1 |  | inactive: 6.3%
8 | Cc1cc(C)nc(N2CCCC(C(=O)NCC(c3ccccc3)c3ccccc3)C2)n1 (centres undefined) |  | inactive: -1.7%
9 | O=c1[nH]c(SCc2nc3ccccc3n2Cc2ccccc2)nc2ccccc12 | inconclusive [inhibitor, full curve, poor fit] | 
10 | CCOC(=O)N1CCC(n2c(=S)[nH]c3ccccc3c2=O)CC1 |  | inactive: 11.5%
11 | O=C(/C=C/Nc1ccccc1C(=O)O)c1cccs1 | inconclusive [inhibitor, partial curve] | 
12 | CCC1CCc2c(sc(NC(=O)c3cccnc3)c2C(N)=O)C1 (centres undefined) | inconclusive [inhibitor, single point] | 
13 | Cc1ccc(-c2cc(-c3ccccc3)no2)c(O)c1 |  | inactive: -10.4%
14 | CCCN1C(=O)/C(=C/c2cc(C)n(C)c2C)SC1=Nc1ccc(OCC)cc1 | active: 3.16 µM | 
15 | CC(/C=C1\SC(=S)N(NC(=O)c2ccc(O)cc2)C1=O)=C\c1ccccc1 | inconclusive [inhibitor, single point] | 
16 | c1ccc(CN2CCN(CCOCCOc3cccc4ccccc34)CC2)cc1 | inconclusive [inhibitor, single point] | 
17 | CC(=O)C1=C(S(=O)(=O)c2ccc(C)cc2)CS(=O)(=O)C1 | active: 1.26 µM | 
18 | Cc1ccc(CN2CCN(Cc3cnc(N4CCOCC4)s3)CC2CCO)o1 (centres undefined) |  | inactive: -13.1%
19 | CC(C)C[C@H](NC(=O)c1nc[nH]c1C(=O)N1CCN(C(=O)OC(C)(C)C)CC1)C(=O)OCc1ccccc1 |  | inactive: 5.09%
20 | COc1ccc2cc(CN(CC3CCCO3)S(=O)(=O)c3ccc(C(C)=O)cc3)c(=O)[nH]c2c1 (centres undefined) | inconclusive [inhibitor, partial curve] | 
21 | Cn1c(=O)c2c(nc(CN3CCN(Cc4ccccc4)CC3)n2Cc2cccc(Cl)c2)n(C)c1=O | inconclusive [inhibitor, single point] | 
22 | COc1ccc(C(=O)Sc2nncc3ccccc23)cc1 | inconclusive [inhibitor, single point] | 
23 | Cc1ccc(OCCCCNC2CCCCC2)c(C)c1 | inconclusive [inhibitor, single point] | 
24 | Cc1ccc(OCc2csc(N)n2)cc1 |  | inactive: 4.87%
25 | Cc1cc(C)c(OCCN2CC(C)OC(C)C2)c(Br)c1 (centres undefined) |  | inactive: -12.9%

Row | SMILES | Potency | activity, negative = inhibition
26 | CCN(CC)c1ncnc2ccc(Br)cc12 | inconclusive [inhibitor, single point] | 
27 | O=c1[nH]c2c(cc1CNCCN1CCOCC1)c(-c1cccc(F)c1)nn2-c1ccccc1 | inconclusive [inhibitor, single point] | 
28 | Nc1cc(C(=O)O)c(O)c(S(=O)(=O)O)c1 | inconclusive [inhibitor, partial curve] | 
29 | CC(C)c1ccc(N2CCN(C(=O)c3ccccc3NC(=O)/C=C(\C(=O)O)c3ccccc3)CC2)cc1 | active: 22.4 µM | 
30 | Cc1cccc2nc(-c3ccccc3)nc(N[C@@H](CO)c3ccccc3)c12 |  | inactive: 4.26%
31 | CCC(=O)Nc1nc2n(n1)C(c1ccc(OC)cc1)C=C(c1ccccc1)N2 (centres undefined) | inconclusive [inhibitor, partial curve] | 
32 | O=C(Nc1ccc(N2CCOCC2)cc1)c1ccc2c(c1)OCO2 |  | inactive: 3.33%
33 | CCn1ncc(CNC(=O)c2cccc([N+](=O)[O-])c2)c1C |  | inactive: 11.7%
34 | O=C(CN(c1ccccc1)S(=O)(=O)c1ccccc1[N+](=O)[O-])NN=C1CCCCCCC1 |  | inactive: -89.8%
35 | CCn1c(SCC(=O)N2CCCCC2)nnc1-c1ccc(S(=O)(=O)N2CCN(C)CC2)cc1 | inconclusive [inhibitor, partial curve] | 
36 | O=c1oc(Nc2ccccc2F)nc2ccccc12 | active: 20 µM | 
37 | Cc1cc2cc(CN(CC3CCCO3)C(=S)NCc3ccco3)c(=O)[nH]c2cc1C (centres undefined) | inconclusive [inhibitor, single point] | 
38 | CCN1CCN(Cc2nc3c(c(=O)n(C)c(=O)n3C)n2CCCc2ccccc2)CC1 | active: 12.6 µM | 
39 | CCOCCCNC(=O)C(c1ccc(OC)cc1)N(Cc1ccc2c(c1)OCO2)C(=O)c1cnccn1 (centres undefined) | inconclusive [inhibitor, partial curve] | 
40 | COc1ccc(CNC2=CC(=O)CC(C)(C)C2)cc1 |  | inactive: -5.68%
41 | CCOc1cc(/C=C2\N=C(SCC)SC2=O)cc([N+](=O)[O-])c1OC(C)=O | active: 31.6 µM | 
42 | Cc1ccc(S(=O)(=O)N2CCCCC2)cc1NC(=O)CSc1nnc(N)s1 |  | inactive: -7.34%
43 | CCSc1nnc(NC(=O)/C=C/c2ccco2)s1 | inconclusive [inhibitor, single point] | 
44 | COc1cc(C(=O)CCN2CCC(c3ccccc3)C2)cc(OC)c1OC (centres undefined) | active: 0.0398 µM | 
45 | CCC(C)(C)NC(=O)CCn1c(-c2ccccc2)cc(C(C)=O)c1C |  | inactive: -10.1%
46 | COc1ccc(N2CCC(CNC(=O)Nc3ccc(OC)cc3OC)C2)cc1 (centres undefined) | inconclusive [inhibitor, partial curve] | 
47 | O=C(CS(=O)(=O)c1cccc(C(F)(F)F)c1)Nc1ccccc1Cl |  | inactive: 10.3%
48 | O=C(N/N=C/c1cccc([N+](=O)[O-])c1)C1CC(=O)N(c2ccc(Cl)cc2)C1 (centres undefined) |  | inactive: -4.66%
49 | COc1ccc(S(=O)(=O)N(CCc2ccccc2)CC(=O)O)cc1 | inconclusive [inhibitor, single point] | 
50 | CCS(=O)(=O)c1ccc(O)c(NC(=O)Nc2ccccc2)c1 |  | inactive: 8.69%

Row | SMILES | Potency | activity, negative = inhibition
51 | Cn1cccc1/C=N/n1c(-c2ccc(Cl)cc2Cl)n[nH]c1=S | inconclusive [inhibitor, partial curve] | 
52 | CS(=O)(=O)N(CC(=O)NN=C1CCCCCC1)c1ccc(Oc2ccccc2)cc1 | inconclusive [inhibitor, single point] | 
53 | CC(=O)c1ccc(N2CCN(C(=S)Nc3cc(C)ccc3C)CC2)cc1 |  | inactive: 3.66%
54 | Cc1cccc(-n2cnc3cc(C(=O)N4CCc5ccccc54)ccc32)c1 | inconclusive [inhibitor, partial curve] | 
55 | O=C(CCS(=O)(=O)c1ccccc1)Nc1nc(-c2cccs2)cs1 |  | inactive: -8.52%
56 | CCc1ccc(CC2S/C(=C(\C#N)C(C)=O)NC2=O)cc1 (centres undefined) |  | inactive: -14.7%
57 | Cc1cnc(C)c(N2CCN(Cc3cn(C)nc3-c3cccc(Cl)c3)CC2)n1 | inconclusive [inhibitor, single point] | 
58 | COc1ccc(C(=O)NN2C(=O)C3C(c4ccccc4)C=CC(c4ccccc4)C3C2=O)cc1 (centres undefined) | inconclusive [inhibitor, single point] | 
59 | O=C(CSc1nc2ccccc2[nH]1)Nc1ccccc1F | inconclusive [inhibitor, single point] | 
60 | COCCCNC(=O)c1cn(Cc2c(F)cccc2Cl)nn1 | inconclusive [inhibitor, single point] | 
61 | COc1ccc(-c2cc(C(F)F)n3ncc(C(=O)n4ccnc4C)c3n2)cc1 | inconclusive [inhibitor, partial curve] | 
62 | CC(C)(C)c1ccc(C(=O)CCCSC2=C(C#N)C(c3ccco3)C3=C(CCCC3=O)N2)cc1 (centres undefined) |  | inactive: -1.6%
63 | C/C(=N\n1c(C)cc(C)c(C#N)c1=O)c1cccs1 |  | inactive: -3.08%
64 | CC(=O)Oc1ccc(/C=C2/Oc3ccccc3C2=O)cc1 | inconclusive [inhibitor, single point] | 
65 | CCc1ccc(Nc2nnc(SCc3cc(=O)n4ccsc4n3)s2)cc1 | inconclusive [inhibitor, partial curve] | 
66 | CCCCN(CC)C(=O)c1cccc(Cl)c1 | inconclusive [inhibitor, single point] | 
67 | O=C(c1ccco1)N1CCCN(Cc2nc(-c3cccs3)no2)CC1 | inconclusive [inhibitor, single point] | 
68 | CCOC(=O)c1ccc(NC(=S)N2CCN(CCNC3=CC(=O)CC(C)(C)C3)CC2)cc1 | inconclusive [inhibitor, single point] | 
69 | O=C(COC(=O)c1ccc2[nH]c3c(c2c1)CCCC3)Nc1ccc(Cl)cc1Cl | inconclusive [inhibitor, single point] | 
70 | COC(=O)CSc1nc(-c2ccccc2)c2c(c1C#N)CCCC2 | inconclusive [inhibitor, partial curve] | 
71 | Cc1cc(=O)oc(C)c1C(=O)OCC(=O)c1ccccc1 | active: 15.8 µM | 
72 | CN(Cc1ccccc1)S(=O)(=O)c1cccc2cccnc12 | active: 8.91 µM | 
73 | COc1ccc(NCC(=O)N/N=C/C(C)c2ccccc2)cc1 (centres undefined) | inconclusive [inhibitor, single point] | 
74 | CCOC(=O)c1cnc2ccc(C(=O)OC)cc2c1NCCN1CCOCC1 | inconclusive [inhibitor, single point] | 
